Data published in the supplement of paper PMC3334620.
In all, about 33,000 sequences were measured (“E-score (-0.5 to 0.5)”: median about -0.021, highest 2% from about 0.32 on). The list shows a part of the results.

Molecular target: T1, Zap1 (UniProt P47043)
T1 sequence: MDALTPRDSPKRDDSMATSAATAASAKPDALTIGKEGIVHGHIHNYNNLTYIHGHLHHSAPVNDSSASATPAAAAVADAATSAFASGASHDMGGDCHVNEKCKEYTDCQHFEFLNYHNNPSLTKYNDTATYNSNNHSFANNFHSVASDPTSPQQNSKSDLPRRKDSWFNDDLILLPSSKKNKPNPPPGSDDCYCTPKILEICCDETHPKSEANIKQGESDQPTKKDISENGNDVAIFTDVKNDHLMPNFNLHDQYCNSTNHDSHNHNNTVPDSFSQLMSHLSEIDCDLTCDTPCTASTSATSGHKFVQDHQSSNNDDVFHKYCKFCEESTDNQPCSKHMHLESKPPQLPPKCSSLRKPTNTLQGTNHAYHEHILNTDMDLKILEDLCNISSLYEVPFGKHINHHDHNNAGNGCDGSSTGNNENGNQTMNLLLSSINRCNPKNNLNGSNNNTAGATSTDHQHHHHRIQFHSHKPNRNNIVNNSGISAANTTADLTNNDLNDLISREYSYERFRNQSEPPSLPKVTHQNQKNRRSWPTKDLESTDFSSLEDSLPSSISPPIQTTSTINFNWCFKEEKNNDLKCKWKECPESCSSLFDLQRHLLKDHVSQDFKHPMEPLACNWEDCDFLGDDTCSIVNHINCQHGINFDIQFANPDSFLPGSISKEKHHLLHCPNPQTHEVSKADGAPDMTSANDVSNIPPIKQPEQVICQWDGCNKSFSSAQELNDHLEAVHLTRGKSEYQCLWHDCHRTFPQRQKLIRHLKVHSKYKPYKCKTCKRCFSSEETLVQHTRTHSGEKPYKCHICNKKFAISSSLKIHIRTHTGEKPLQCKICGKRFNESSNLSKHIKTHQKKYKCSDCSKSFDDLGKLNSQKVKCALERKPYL
Experiment: PBM E-score (8-mer binding enrichment) (E-score (-0.5 to 0.5)); higher = stronger / more preferred TF binding; most listed sequences are background and not binding sites
Conditions: protein concentration: 200 nM; construct: GST-full length
Summary of the method: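 Detection of bound protein used fluorescent anti-GST, with scans normalised by masliner. The proteins were GST-tagged yeast transcription factors applied at about 100-200 nM to universal all-10-mer Agilent arrays made double-stranded by primer extension. Each ungapped eight-base word, pooled with its reverse complement, was scored with an E-score from the Universal PBM Analysis Suite.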

Sequence | PBM E-score
CGATATAG | 0.0443
CACGTCTG | -0.121
CAGCTAGG | -0.294
ACGTCACA | -0.0421
CGGTGAAC | -0.0916
GGGCGACC | -0.0599
GCGGAACA | -0.295
AAATACAC | 0.0463
CAACTGCA | -0.0489
CACGCTCG | -0.113
CTTTGTTA | 0.229
AGCGCCCC | -0.221
ACCCGTCA | 0.186
AGTGCAAA | -0.0239
CGGGACCC | 0.182
ATTATGAC | 0.0175
CTTGAGGA | -0.0238
AATGGGAC | 0.0748
CACGATCG | -0.0406
CAGGTGCA | -0.0246
GTGAGCAC | -0.142
CAACATAA | 0.113
CAAATCGG | -0.0485
AGGGAATA | -0.054
TATATATA | 0.37

Sequence | PBM E-score
ATGCATGG | 0.0833
AGACCTCC | -0.175
ACGTACGC | -0.165
ATCTGGTA | 0.189
GTAAGTTA | -0.0267
CAAGCATC | -0.105
CGTTATTA | 0.114
ACAAGGAC | -0.0119
CTCGTCTC | -0.196
CTCTTCAG | 0.0335
CGTTTGTA | 0.123
CCTACGGA | -0.232
GCCGTTTA | -0.16
GAAGTGGC | -0.106
CCGACATC | 0.06
ATGTTCAC | 0.0804
AGGCGCTG | -0.194
TATCCGCA | 0.112
GAGAATCA | -0.128
CATGGGGA | 0.151
ATTCCAGA | -0.137
GATGTCAA | -0.291
AGTGCGGG | -0.0868
CATGCTCC | -0.316
CTTTTGAC | 0.101

Sequence | PBM E-score
AGAACAGA | -0.0561
CGACCAAG | -0.00356
TGGAAAAA | 0.162
AGTACTAG | 0.175
AATGAATC | -0.148
TAGAGCCA | -0.11
CATGAGTC | -0.0381
CACTTCTG | -0.155
CATTTTTA | -0.0145
CACTAATC | 0.132
AGCTGCTA | -0.241
GCTACGAC | -0.114
AACGACTC | -0.28
CAGCGCGC | -0.144
ACCGGCAG | -0.136
CTGGAAAC | -0.00917
GCTACACA | -0.175
CTACATTC | -0.127
GCCCGTCA | -0.341
GGAAAACC | 0.134
ATTGGGAA | -0.0739
CTATTCCC | -0.178
TGCTTTAA | 0.0812
GCGGCCCA | -0.0162
GACGTTCA | -0.224

Sequence | PBM E-score
CCGAGTGC | -0.205
CCCTTACA | 0.0265
CATGTTCA | -0.217
AATCCTGA | -0.0744
ATTAGTAA | 0.128
GAGCCCTA | -0.139
ATCGTTCG | -0.129
CGTATACA | -0.0506
CACGAATC | -0.0402
CATCCATC | -0.221
GCGTCGAC | -0.0199
GTTCTTGA | 0.262
AACCCTGG | 0.392
AGTGGGTG | 0.0541
CCTTGACA | 0.036
CTTTTTGA | 0.138
ACATATCT | 0.0442
AATGTGTG | 0.0602
CGCTGTTA | -0.101
ACTTAGCC | -0.254
GTGTCGAA | -0.0374
CCGACTTA | -0.0765
AACAAAGG | 0.164
CCACCACA | 0.00801
ATTGTGTA | 0.122

Sequence | PBM E-score
AGAGTCAG | -0.145
AGCAGGAG | -0.116
AACCTAAA | 0.356
AGATGATA | 0.0556
CACACTTC | 0.0215
CATTGCCG | -0.00464
AGTAGACA | 0.119
CCCGTCAA | -0.0938
AGGTACGA | -0.0106
GATGAATA | 0.069
GAAGCCAC | -0.213
GAAGCAGA | -0.198
AAACAGCT | -0.0665
AGTCCCAT | -0.258
TCTGTCCA | 0.0414
CAGGAGTA | 0.0199
GAACCCTA | 0.272
AGAGTTTC | -0.223
CGGATTTC | -0.05
TCAGGGGA | -0.0374
AAATCTCG | -0.108
CCACCTTC | 0.0785
CCCCGCAA | -0.00597
CCTCTCAA | 0.067
GGTTCGAA | 0.195

Sequence | PBM E-score
CAGTGAGG | -0.166
ACAAGCAG | -0.0114
CACTTGCG | 0.0494
ATGTGCGC | -0.193
CGGCTTCA | -0.0407
CAGTGGAG | -0.0265
CGCTCGGC | -0.188
CCCGACCA | 0.197
AGGCGTAG | -0.223
GTCCGCAC | -0.0047
ACGGACGT | -0.121
GATGAGCA | 0.02
CAATTGCA | -0.0471
AATAGAAA | -0.0712
CACAAAGC | 0.132
CACTAGAG | 0.0544
AGTCGCGG | -0.143
TGCGGAAA | -0.092
ACGTTACA | -0.0394
AACAGCGG | -0.195
GGTGGAAC | 0.0372
CGGGCTAG | -0.0994
TCTCGAAA | 0.103
ACGAGAAA | 0.0387
AAATTGTC | 0.156

Sequence | PBM E-score
AAGTCCCG | -0.242
AGCTTTGC | -0.268
AAGTTAAT | -0.108
ACATATCC | -0.0913
TAGATGCA | -0.171
GAGCCTCC | -0.225
ACTGTTCC | -0.193
CCCTTCCA | 0.0312
GATTGAAC | 0.00648
ACGATATC | 0.0333
ACCCAACT | 0.0992
AATGCTCG | -0.21
CAAAAACA | 0.0707
AACCCCGC | 0.293
CAATAAAC | 0.164
AATTGTTA | 0.133
ACTTTGCA | 0.116
ACCGATCA | 0.0449
CCAGCCTA | -0.0123
TACTCAAA | 0.148
CCGTGTTC | 0.017
ATTGGTAC | 0.0554
